Biological target: 6×His-MYC-Strep-Tag II (human, UniProt P01106-1)
Assay: MST

binding result: binds
B1: 6×His-MBP-GFP-MAX-Strep-Tag II (natural protein)
chain: MSDNDDIEVESDEEQPRFQSA[omitted - about 80 residues]KARSSAQLQTNYPSSDNSLYTNAKGSTISAFDGGSDSSSESEPEEPQSRKKLRMEAS
